This is an account of results in PMC4336329 (PLoS ONE, 2015).

In all, about 310,000 compounds went through this assay and about 14,000 (4.5%) showed an effect of 50% or more. Effects have a minus sign here. The list shows a part of the results. *1 amine or outer side, *2 acyl side, *3 side chain or, on linkers, in order; H or OH if unused. Where a SMILES comes first, the peptide text is derived from it. Bridges are numbered along the chain shown (N, C = ends). [ ]: non-standard residue; d: D form. ξ: configuration not given here. hSer(Ph(2-I,4-NO2,6-CO)) = O=C([C@H](CCOc1c(I)cc([N+](=O)[O-])cc1C(=O)[*:3])N[*:1])[*:2]; ξD = NC(CC(=O)O)C(=O)O
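Note: peak tail current of the secondary pulse compared with the same well before compound.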

For the assay, the target named is human ether-à-go-go-related gene (hERG) potassium channel (human, UniProt Q12809). In words: primary screen, population patch clamp on CHO cells stably expressing hERG.
Sequence of human ether-à-go-go-related gene (hERG) potassium channel (Q12809 whole entry, looked up): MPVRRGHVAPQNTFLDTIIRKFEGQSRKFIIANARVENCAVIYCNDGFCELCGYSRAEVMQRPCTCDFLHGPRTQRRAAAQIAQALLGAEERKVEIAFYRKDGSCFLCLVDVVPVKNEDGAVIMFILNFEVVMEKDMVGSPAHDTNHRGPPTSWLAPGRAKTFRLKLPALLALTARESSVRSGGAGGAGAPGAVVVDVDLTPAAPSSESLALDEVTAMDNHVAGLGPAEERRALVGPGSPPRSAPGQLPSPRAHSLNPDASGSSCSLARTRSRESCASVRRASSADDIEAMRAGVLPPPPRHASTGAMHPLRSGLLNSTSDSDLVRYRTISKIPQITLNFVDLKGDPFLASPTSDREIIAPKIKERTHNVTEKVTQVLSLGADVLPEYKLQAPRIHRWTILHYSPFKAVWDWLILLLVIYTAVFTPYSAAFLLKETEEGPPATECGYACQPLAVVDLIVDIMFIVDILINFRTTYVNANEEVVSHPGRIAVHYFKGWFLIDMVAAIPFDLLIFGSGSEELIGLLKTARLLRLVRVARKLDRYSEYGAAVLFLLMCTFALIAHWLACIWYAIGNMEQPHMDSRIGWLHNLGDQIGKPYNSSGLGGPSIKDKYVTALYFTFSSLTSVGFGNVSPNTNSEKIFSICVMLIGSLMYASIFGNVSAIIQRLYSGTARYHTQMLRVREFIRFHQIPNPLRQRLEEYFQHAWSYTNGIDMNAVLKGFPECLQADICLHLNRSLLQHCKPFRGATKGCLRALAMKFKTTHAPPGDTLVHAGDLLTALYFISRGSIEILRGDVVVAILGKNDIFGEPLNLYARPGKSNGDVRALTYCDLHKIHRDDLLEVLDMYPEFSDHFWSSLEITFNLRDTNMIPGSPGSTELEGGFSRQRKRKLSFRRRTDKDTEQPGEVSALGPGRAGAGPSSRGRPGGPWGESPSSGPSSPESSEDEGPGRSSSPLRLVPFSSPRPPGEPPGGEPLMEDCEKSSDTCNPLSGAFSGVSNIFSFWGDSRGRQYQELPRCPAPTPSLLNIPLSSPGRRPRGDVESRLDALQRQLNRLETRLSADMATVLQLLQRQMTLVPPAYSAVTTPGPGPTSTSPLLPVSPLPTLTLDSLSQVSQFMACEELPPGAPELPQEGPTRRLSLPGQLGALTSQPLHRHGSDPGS
In the case of `Cc1ccn2c(-c3n[nH]c(=S)n3Cc3ccccc3)c(C)nc2c1`, the “hERG current change (%, negative = inhibition) at 10uM” value turned out to be 5.92%.
As for `CC(C)C(=O)Nc1ccccc1Cc1ccccc1`, the “hERG current change (%, negative = inhibition) at 10uM” value was 13%.
With `COc1ccc(N(Cc2cc(=O)[nH]c3ccccc23)C(=O)CCl)cc1` the figure was 5.27%.
On to `COc1cc(OC)c(S(=O)(=O)NC(C)C)cc1C(=O)O`, for which the “hERG current change (%, negative = inhibition) at 10uM” value amounted to 4.39%.
`C=CCn1cc(C(=O)NCCCOC)c(=O)c2cc(S(=O)(=O)N3CCC(C)CC3)ccc21`: the “hERG current change (%, negative = inhibition) at 10uM” value is on record as -32.9%.
Then `CC1(C)CC(=O)C(Sc2nnc(-c3ccc(NS(C)(=O)=O)cc3)n2Cc2ccco2)C(=O)C1`, with 19.5%.
With `Cn1nc2c3ccccc3n(Cc3ccc(F)cc3)c2nc1=S` the figure was -2.76%.
With `CCCCc1ccc(S(N)(=O)=O)cc1` the figure was 15.7%; with `NC(=O)c1ccc(C(F)(F)F)n(Cc2ccc(F)c(F)c2)c1=O`, 39.4%; with `CC(NCc1cc(Br)ccc1OCC(=O)NCc1ccccc1)c1ccccc1.Cl` (centres unmarked), -59.6%.
`O=C(NCc1ccco1)C(c1cccnc1)N(C(=O)Cn1nnc2ccccc21)c1ccccc1` (centres unmarked): the “hERG current change (%, negative = inhibition) at 10uM” value turned out to be 0.317%.
For the compound `O=C(O)CCC(=O)N1CCN(S(=O)(=O)c2ccc3ccccc3c2)CC1`, the “hERG current change (%, negative = inhibition) at 10uM” value is listed as 25.6%.
Then `O=C(CCC(=O)N1CCOc2ccc(Cl)cc21)NCCCN1CCN(Cc2ccccc2)CC1`, with -73.2%; and `CN1CCN(C(=O)c2cc3c(ccc4ccccc43)oc2=O)CC1`, with 5.69%.
With `COc1cccc(CNC(=O)CN2C(=O)COc3ccc(S(=O)(=O)N4CCC(C)CC4)cc32)c1` the figure was 1.64%; with `O=C1c2ccccc2C(=O)N1OCc1ccccc1`, 11.1%; with `COc1ccc(NC(=O)Nc2cc(NC(=O)Nc3ccc(OC)cc3)c(C)nc2C)cc1`, 21.8%.
Then `CC(C)OC(=O)CSc1nnc(-c2ccncc2)n1N`, with 18.5%; and `CCOC(=O)c1c(C)[nH]c(C)c1C(=O)CSc1nc2ccccc2c(=O)n1-c1ccc(F)cc1`, with -8.56%.
For `O=C(NCCS(=O)(=O)NCCc1ccccc1)c1ccccc1`, the “hERG current change (%, negative = inhibition) at 10uM” value is -14.2%.
With `C(=N\N1CCN(Cc2cccc3ccccc23)CC1)/c1cccs1` the figure was -7%; with `CCn1c(=O)n(Cc2ccco2)c(=N)c2c3c(sc21)COC(C)(C)C3`, -28%; with `CCC(C)(C)n1nnnc1C(c1cc2ccc(OC)cc2[nH]c1=O)N1CCc2ccccc2C1` (centres unmarked), -27.9%.
Then `CCN(c1ccccc1)S(=O)(=O)c1ccc(C(=O)NCC2(N(C)C)CCCCC2)cc1`, with -57.8%.
Then `C#Cc1ccc([C@@H]2C=C(C(=O)Nc3ccccc3)O[C@H](OCC)[C@H]2CCCO)cc1`, with -22.2%; and `Cn1c2ccccc2c2nnc(SCC(=O)NCc3ccoc3)nc21`, with -1.99%; and `COC(=O)c1cc(-c2c(-c3ccc4c(c3)OCO4)noc2-c2ccsc2)cc([N+](=O)[O-])c1`, with 10.7%.
Take `COc1ccccc1NC(=O)N(Cc1ccccc1)c1ccccn1`: the “hERG current change (%, negative = inhibition) at 10uM” value is reported as 17.3%.
Then `CN(C)c1ccc(C(=O)OCC(=O)Nc2ccc(S(N)(=O)=O)cc2)cc1`, with 7.75%; and `COc1ccccc1NC(=O)C(=O)NNC(=O)COc1ccc2ccccc2c1`, with 18.3%; and `CCCCCCSc1ccc([C@@H]2[C@H]3C(=O)N(C)C(=O)[C@H]3[C@]3(C(=O)OC)CCCCN23)cc1.O=C(O)C(F)(F)F`, with -10.9%.
As for `COC(=O)Cn1c(=O)c2c(nc(Br)n2CC(=O)OC)n(C)c1=O`, the “hERG current change (%, negative = inhibition) at 10uM” value is 3.72%.
With `O=C1CC(c2cccs2)CC(O)=C1C=NCCN1CCNCC1` (centres unmarked) the figure was -17.5%; with `C#CCOCCOCCOCCNc1nc(N2CCN(C(=O)[C@H](Cc3cc4ccccc4[nH]3)n3cc([C@@H](N)CC(C)C)nn3)CC2)nc(N2CCN(C(=O)[C@H](Cc3cc4ccccc4[nH]3)n3cc([C@@H](N)CC(C)C)nn3)CC2)n1.Cl`, -7%; with `CCC(C)[C@H](NS(=O)(=O)c1ccc(C)cc1)C(=O)N1CCC(C(=O)N2CCC(C(N)=O)CC2)CC1` (some centres unmarked), 18.2%.
Then `COc1cccc(NC(=O)C2C3C=CC4(O3)C2C(=O)N(CCCN2CCCCC2)C4C(=O)NC2CCCCC2)c1` (centres unmarked), with 19%.
With `Br.N=c1n(N)c2ccccc2n1CC(=O)c1ccc(Br)cc1` the figure was -36.7%.
Regarding `COc1ccc(N2CC(C(=O)NCCc3ccc(Cl)cc3)CC2=O)cc1` (centres unmarked), the “hERG current change (%, negative = inhibition) at 10uM” value is given as -15.9%.
Take `NC(=O)/C(=C\c1cccnc1)NC(=O)c1ccccc1`: the “hERG current change (%, negative = inhibition) at 10uM” value was 14.8%.
With `Cc1ccccc1C(=O)Nc1nnc(CC(=O)N/N=C/c2cn(Cc3ccccc3)c3ccccc23)s1` the figure was 12.6%.
As to `CC(=O)Oc1ccc(-c2cc3ccccc3oc2=O)cc1`, the “hERG current change (%, negative = inhibition) at 10uM” value is reported as 0.436%.
Then `CCN(CC)S(=O)(=O)c1ccc(-c2nnc(SCc3nnc(-c4ccccc4)o3)o2)cc1`, with 7.63%; and `COc1ccc2[nH]c(C(=O)N3CCN(c4ccccc4F)CC3)c(C)c2c1`, with 0.586%.
Then `COCCCNS(=O)(=O)c1ccc2c(c1)CCN2C(C)=O`, with 13.1%.
With `O=C(CNC(=O)c1ccc(Cl)cc1Cl)NCC1CCCO1` (centres unmarked) the figure was 13.1%; with `C[C@@H]1NC(=O)[C@H](CC(N)=O)NC(=O)c2cc([N+](=O)[O-])cc(I)c2OCC[C@@H](C(=O)NC(CC(=O)O)C(N)=O)NC1=O` (some centres unmarked) (NA[hSer(Ph(2-I,4-NO2,6-CO))][ξD]-NH2; lactam N-3), 6.03%.
With `CCOC(=O)C1CCN(C(=O)c2ccc3c(SCC(=O)O)c4c(nc3c2)CCCC4)CC1`, the “hERG current change (%, negative = inhibition) at 10uM” value amounted to 27.1%.
As to `COc1ccc(CCNC(=O)COC(=O)C23CC4CC(CC(C4)C2)C3)cc1`, the “hERG current change (%, negative = inhibition) at 10uM” value was -1.13%.
Regarding `COc1ccc(NC(=O)CS(=O)CC(=O)Nc2cccc3cccnc23)cc1` (centres unmarked), the “hERG current change (%, negative = inhibition) at 10uM” value was 0.361%.
Turning to `CC(C)C(=O)NC(c1cccc([N+](=O)[O-])c1)c1c(O)ccc2ccccc12` (centres unmarked), the “hERG current change (%, negative = inhibition) at 10uM” value turned out to be 18.6%.
